{
  "source": "patent US9394327B1",
  "about": "“Nucleoside crystals, crystal nucleation and growth control with antifreeze proteins” (The Trustees of California State University, priority 2013, dated 2016)",
  "assay": "DSC thermodynamic stability analysis of m^5U forms",
  "type": "physicochemical",
  "settings": "heated 25 to 200° C. at 5° C./min",
  "description": "Thermodynamic Stability Analysis. Both forms of m^5U were analyzed by DSC (FIG. 20). […] The first endotherm associated with water loss is at 139.07° C., whereas the second endotherm ascribed to the melting is at 185.65° C. […] Form II starts losing water and then melts at relatively lower temperatures than those of form I. The enthalpy profiles for both forms are compared in FIG. 21.\nAll experiments were performed with a DSC 1 (Mettler Toledo, Ohio). An indium standard (Mettler Toledo, Ohio) was used to calibrate the instrument. Samples weighed 3-4 mg and were hermetically encapsulated in standard aluminum sample pans with pierced lids to release any pressure build-up during the experiments. The samples were heated from 25 to 200° C. at a rate of 5° C./min.",
  "note": "Entries with a single value are a further part of the results.",
  "data": [
    {"smiles": "Cc1cn([C@@H]2O[C@H](CO)[C@@H](O)[C@H]2O)c(=O)[nH]c1=O", "note": "[form II, 5-methyluridine]", "values": [
      {"measurement": "DSC endotherm associated with water loss", "setting": "first water molecule loss endotherm", "value": 137.04, "unit": "°C"},
      {"measurement": "DSC endotherm associated with water loss", "setting": "second water molecule loss endotherm", "value": 153.72, "unit": "°C"}
    ]}
  ]
}
